For three compounds, Activity results are on record in ChEMBL document CHEMBL3045800 (2003).

The subject of this assay is Oryza sativa. The experiment in a line: Induction of systemic acquired resistance against Pyricularia oryzae-induced Oryza sativa (rice) blast disease in 2.1 leaf stage Oryza sativa plants Oryza sativa cv. Nipponbare seedlings pre-treated with soil drench application of compound seven days before fungal inoculation assessed as compound level per pot causing protection against blast lesions disease development measured 7 days post fungal inoculation under green house conditions.
As to `C=CCOC1=NS(=O)(=O)c2ccccc21`, the Activity entry is “Dose-dependent effect”.

For the compound `Cn1nc(Cl)cc1C(=O)O` [3-CHLORO-1-METHYL-1H-PYRAZOLE-5-CARBOXYLIC ACID], the Activity entry is “Dose-dependent effect”.

As to `CSC(=O)c1cccc2nnsc12`, the Activity entry is “Dose-dependent effect”.
